Data taken from PubChem BioAssay AID686978 (National Center for Advancing Translational Sciences (NCATS), 2013).
Values joined by “and” are separate entries in the source; they are usually repeats but may differ in a detail not shown here. Equal values may be shown once. Among all 420,000 compounds or so, about 64,000 (15%) were called active. The inconclusive results got no clear call from the source; some entries with a clear call stand among them for comparison. Calls come from the whole dose curve; as a rule, active = well fitted inhibition curve with a large enough effect; inconclusive = small, poorly fitted or top-dose-only effect; inactive = flat fitted curve, though single readings scatter. Potencies beside an inconclusive call are fits to weak or partial responses and may not hold up.

Test: qHTS for Inhibitors of human tyrosyl-DNA phosphodiesterase 1 (TDP1): qHTS in cells in absence of CPT; note: nearly all actives have a fitted effect of over 55% in size
Conditions: DT40 Tdp1-/- hTDP1 cells, no CPT, ATP luminescence, 48 h; activity change, negative = growth inhibition: at 46.2 µM (top of the series) unless noted
Outline: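 Chicken DT40 Tdp1-/- cells complemented with human TDP1, screened without camptothecin (DMSO vehicle only), 400 cells/well. Compounds pin-transferred, cells incubated at 37 °C for at least 48 hr. Growth read as ATP-dependent luminescence (CellTiter-Glo, 30 min at RT).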
% is set by controls: 0 for no effect and ±100 for the full control effect; potency is the fitted concentration of half-maximal effect; tags give direction and shape of the fitted curve.

Compound | activity change, negative = growth inhibition | Potency
COc1ccc(N2CC(NC(=O)C3CC3)CC2=O)cc1OC (configuration not stated) | inactive: -6.41% | –
O=C(NC1CC1)c1cccc(S(=O)(=O)Nc2ccccc2F)c1 | inactive: -3.66% | –
CC(C)CCn1c(=O)c2sccc2n2c(CCCC(=O)NCc3ccc(F)cc3)nnc12 | – | inconclusive: 18.4 µM [inhibitor, single point]
c1ccc2c(c1)OCCOCCOCCO2 | inactive: 1.21% | –
Cc1ccc(C(NC(=O)C2CCN(CCOc3ccc(Cl)cc3Cl)CC2)c2ccccn2)cc1 (configuration not stated) | – | inconclusive: 29.1 µM [inhibitor, single point]
CCCCn1c(=O)c2ccccc2c2ccccc2c1=O | – | inconclusive: 10.3 µM [inhibitor, partial curve]
O=C(Nc1ccc(-c2cn3ccccc3n2)cc1)c1ccc(Cl)cc1 | – | active: 9.2 µM
Cc1ncc([N+](=O)[O-])n1CC(=O)Nc1ccc(OC(F)(F)Cl)cc1 | – | inconclusive: 25.9 µM [inhibitor, single point]
CCc1ccccc1NC(=O)c1cc(S(=O)(=O)N2CCCc3ccccc32)ccc1F | – | active: 18.4 µM
CCOc1cc(S(=O)(=O)n2c(C)nc3ccccc32)ccc1F | – | inconclusive: 25.9 µM [inhibitor, single point]
Cc1c(C(=O)Nc2ccc(F)cc2)sc2nc[nH]c(=O)c12 | inactive: -24.1% | –
Cc1nnc(SCc2ccc([N+](=O)[O-])cc2)o1 | – | inconclusive: 23.1 µM [inhibitor, single point]
CC1(C)ON=C(c2ccc(C(F)(F)F)cc2)NC1=O | inactive: -23.4% | –
Cc1cccc(N2CCN(C(=O)CCn3c(=O)c4cccn4c4cccnc43)CC2)c1C | – | inconclusive: 20.6 µM [inhibitor, single point]
Cc1ccc(-n2c(CNc3cccc(Cl)c3)n[nH]c2=S)cc1 | inactive: -5.75% | –
O=C(COc1ccccc1)Nc1cccc(-c2cn3cccnc3n2)c1 | – | inconclusive: 29.1 µM [inhibitor, single point] and inconclusive: 20.6 µM [inhibitor, partial curve]
CC(C)c1ccc(Nc2nnc(SCC(=O)NCC3CCCO3)s2)cc1 (configuration not stated) | – | active: 16.4 µM
O=C(NC1=NCCS1)C1Cc2ccccc2CN1C(=O)c1ccccc1 (configuration not stated) | – | inconclusive: 29.1 µM [inhibitor, single point]
O=C(Nc1ccon1)c1ccc(F)c(S(=O)(=O)N2CCCCC2)c1 | – | inconclusive: 23.1 µM [inhibitor, single point]
O=C(Nc1cccc(OC(F)(F)F)c1)C1Cc2c(-c3ccc(Cl)cc3)ccnc2O1 (configuration not stated) | inconclusive: -31.7% [inhibitor] | –
Cc1ccccc1CN(C)C(=O)[C@H](Cc1ccccc1)NC(=O)c1ccco1 | – | inconclusive: 29.1 µM [inhibitor, single point]
O=C(Cn1c(=O)c2cccn2c2ccc(F)cc21)N1CCN(c2ccc(F)cc2)CC1 | – | inconclusive: 13 µM [inhibitor, partial curve]
O=C(CC1C(=O)NCCN1CC1CCCCC1)NCc1cc(F)ccc1F (configuration not stated) | – | inconclusive: 18.4 µM [inhibitor, single point]
CCOc1ccccc1CNC(=O)c1cccn1-c1nnc(N2CCCCC2)s1 | – | inconclusive: 23.1 µM [inhibitor, single point]

Compound | activity change, negative = growth inhibition | Potency
COCc1ccc(C(=O)N2CCCC(N3CCN(c4ccc(F)cc4)CC3)C2)o1 (configuration not stated) | – | inconclusive: 29.1 µM [inhibitor, single point]
Cc1ccc(S(=O)(=O)N(CC(=O)O)Cc2ccccc2)cc1 | inactive: -9.82% | –
Cc1cc(C)c(C)c(OCCCN(C)C)c1 | – | inconclusive: 29.1 µM [inhibitor, partial curve, poor fit]
Cc1ccn2c(=O)c(C(=O)NC(C)c3ccccc3)c(O)nc2c1 (configuration not stated) | – | active: 23.1 µM
COc1ccc(Cl)cc1NC(=O)CNCC(c1ccccc1)N(C)C (configuration not stated) | inactive: -1.02% | –
O=C(CN(Cc1cccs1)C(=O)c1csnn1)NC1CCCC1 | – | inconclusive: 29.1 µM [inhibitor, partial curve, poor fit]
CCOn1c(=O)c(=O)n(OC)c2ccccc21 | inactive: -26.7% | –
Cc1ccccc1Cn1ccc(-c2ccc3c(c2)OCO3)n1 | – | inconclusive: 23.1 µM [inhibitor, partial curve]
COc1cc2c(cc1OC)C(C(=O)Nc1ccc3c(c1)OCCO3)C(c1cccnc1)N(C)C2=O (configuration not stated) | – | inconclusive: 11.6 µM [inhibitor, partial curve]
COc1ccc(Cn2c(=O)n(Cc3ccco3)c(=N)c3c4c(sc32)COC(C)(C)C4)cc1 | – | inconclusive: 32.6 µM [inhibitor, partial curve]
CS(=O)(=O)N(CC(=O)NCc1ccco1)c1ccc(Cl)c(C(F)(F)F)c1 | – | inconclusive: 29.1 µM [inhibitor, single point]
Cc1ccsc1C1C(C#N)=C(N)Oc2n[nH]c(C)c21 (configuration not stated) | inconclusive: -34.6% [inhibitor] | –
N#Cc1cccc(NC(=O)c2cc3c(s2)-c2ccc(Cl)cc2SC3)c1 | – | active: 23.1 µM
Nc1ccc2cc3ccc(N)cc3nc2c1 | – | active: 2.66 µM
COc1ccccc1N1CCN(C(=O)c2cc(-c3ccccc3O)on2)CC1 | – | active: 18.4 µM
CCOC(=O)c1c(NC(=S)N2CCN(C)CC2)sc(C)c1-c1ccccc1 | – | inconclusive: 29.1 µM [inhibitor, single point]
COc1cc(C(=O)N2CCN(Cc3ccc4c(c3)OCO4)CC2)cc(OC)c1OC | inactive: -5.42% | –
CCCc1nnc(NC(=O)c2cc3ccccc3oc2=O)s1 | – | inconclusive: 0.0073 µM [inhibitor, full curve]
C1CCc2c(nc3nnnn3c2NCC2CC2)C1 | inactive: -4.02% | –
O=C(COC(=O)COc1ccc(Cl)cc1)NCCCc1ccccc1 | – | inconclusive: 20.6 µM [inhibitor, single point]
Cc1ccc(S(=O)(=O)N(Cc2cc3ccccc3[nH]c2=O)CC2CCCO2)cc1 (configuration not stated) | inactive: -12.1% | –
S=c1[nH]nc(CSCCOc2ccccc2)o1 | inactive: -28.6% | –
COc1ccc2nc(NC(=O)C3CCN(C(=O)c4ccco4)CC3)sc2c1 | – | inconclusive: 25.9 µM [inhibitor, single point]
COCCNc1nc(-c2cc3ccccc3o2)cs1 | inactive: -3.66% | –

Compound | activity change, negative = growth inhibition | Potency
Cc1c(NC(=O)Nc2cccc(Cl)c2Cl)c(=O)n(-c2ccccc2)n1C | inactive: 1.77% | –
CCc1c(C)sc(NC(=O)Cn2nc(C)c([N+](=O)[O-])c2C)c1C(N)=O | – | inconclusive: 29.1 µM [inhibitor, single point]
Cn1c(-c2ccc(F)cc2)cc2onc(-c3ccccc3Cl)c2c1=O | – | inconclusive: 7.31 µM [inhibitor, partial curve]
CC(=O)NCc1ccc(-c2csc(NC(=O)CCCc3nc4ccccc4c(=O)[nH]3)n2)cc1 | – | inconclusive: 29.1 µM [inhibitor, single point]
O=C(CCn1c(=O)oc2ccccc21)Nc1cccc([N+](=O)[O-])c1 | inactive: -0.241% | –
CC1CCc2c(sc(NC(=O)c3ccccc3C(=O)O)c2C#N)C1 (configuration not stated) | inactive: -13.8% | –
CCCCN=C1NN=C(c2cccc([N+](=O)[O-])c2)CS1 | – | inconclusive: 18.4 µM [inhibitor, single point]
COc1ccc(/C=N/n2c(-c3ccccc3)n[nH]c2=S)cc1 | – | inconclusive: 29.1 µM [inhibitor, single point]
O=C(NCCC1=CCCCC1)c1ccc2c(=O)n3c(nc2c1)CCCCC3 | – | inconclusive: 29.1 µM [inhibitor, single point]
Nc1nc(SCc2ccccc2)cc(SCc2ccccc2)n1 | inactive: -22.6% | –
COc1ccc(NC(=O)c2cnc[nH]2)cc1 | – | inconclusive: 8.2 µM [inhibitor, partial curve, poor fit]
COc1ccc(S(=O)(=O)c2cc(NS(=O)(=O)c3ccc(Cl)cc3)c(C)c(C)c2O)cc1 | – | active: 16.4 µM
Cc1nc2ccccc2c(=O)n1Nc1cccc(Cl)c1 | – | inconclusive: 29.1 µM [inhibitor, single point]
O=C(CN1CCCN(S(=O)(=O)c2ccc(Br)s2)CC1)Nc1ccc(Cl)cc1 | – | inconclusive: 35.5 µM [inhibitor, single point]
O=C(Nc1ccncc1)OCc1ccccc1 | – | active: 20.6 µM
O=C(CSCc1cnn(-c2ccccc2)c1-n1cccc1)NCC1CCCO1 (configuration not stated) | – | inconclusive: 29.1 µM [inhibitor, single point]
COc1ccc([C@H]2C[C@@H](n3cc(C4CC4)nn3)[C@H](O)CN2Cc2cccs2)cc1 | – | inconclusive: 23.1 µM [inhibitor, partial curve]
COc1ccccc1-n1c(-c2ccc(C)cc2)cn2c3c(=O)n(C)c(=O)n(C)c3nc12 | – | inconclusive: 6.51 µM [inhibitor, partial curve]
CCC(=O)Nc1cc(Cl)ccc1N1CCN(C(=O)CC)CC1 | – | inconclusive: 20.6 µM [inhibitor, single point]
O=C1C2=C(NC(=S)NC2c2ccc(Cl)cc2)NC(c2ccc(Cl)cc2)N1c1ccc(Cl)cc1 (configuration not stated) | – | inconclusive: 29.1 µM [inhibitor, single point]
CCN(Cc1ccc2c(c1)OCO2)C(=O)CSc1nc(C)nc2sc(C)c(C)c12 | – | inconclusive: 29.1 µM [inhibitor, single point]
CN(C)S(=O)(=O)c1ccc(C(=O)Nc2nc(-c3ccccc3)c(C(=O)c3ccccc3)s2)cc1 | – | inconclusive: 20.6 µM [inhibitor, single point]
Cc1ccccc1-n1c(SCc2cccc(F)c2)nc2[nH]ncc2c1=O | – | inconclusive: 20.6 µM [inhibitor, single point]
Cc1ccc(S(=O)(=O)Nc2cccc(-c3ccc(N4CCCCCC4)nn3)c2)cc1 | – | inconclusive: 29.1 µM [inhibitor, single point]
